The results in this text go back to the supplement of paper PMC11417369.

± gives the standard deviation of the averaged measurements. Some of the results follow.

The subject of the assay is PfAP2-I AP2 domain 3 (GST-tagged). Description: gcPBM binding intensity (ln(normalized median fluorescence intensity)); higher = stronger DNA binding. In short, it runs like this:
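Using an Agilent 4 × 180k array, primer-extended double-stranded 36-bp intergenic genomic probes and negative controls were exposed for 1 h to GST-fused P. falciparum DNA-binding domains expressed in E. coli. Binding was carried out in 1× PBS with 1% milk, 0.2 mg/ml BSA, 0.5% salmon testes DNA and 0.03% Triton X-100, and protein was detected with Alexa488 anti-GST antibody and a 488 nm scan. Binding intensity is the highest Masliner-normalised natural-log median intensity across replicate spots of either probe orientation.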
For the sequence “TTTCCATATATAGAACGTACAAAGATCTTTGTTACT [XGTACX_site8972]”, the “gcPBM binding intensity (ln)” value was 7.63 ± 0.64.
With “TAGCTTTTGCCTTTTTTTAAAAAAAAATAAATAAAT [TGCATGCA_negctrl_site242]” the figure was 7.67 ± 0.46; with “TATATATATTTATACACACAAACATAATACTACTTA [CACACA_site2022]”, 7.97 ± 0.5; with “TTTTTTTTTATGTGCACACAAAAGATGCTTATATTT [CACACA_site2348]”, 10.69 ± 0.092.
For “TGCATATACATATGTAGTACAATAATTTGAAAAAAA [XGTACX_site5239]”, the “gcPBM binding intensity (ln)” value turned out to be 7.92 ± 0.43.
In the case of “TATATATGGTATAATTGTACTAACGCCAACTATACC [XGTACX_site5853]” it was 7.86 ± 0.3; in that of “TTATTATTTTATAACACACACATATAGATTATAGCT [CACACA_site6787]”, 7.84 ± 0.53; in that of “ATATATATATATATAAAGTGAAGTATGAGGGAAATA [XGTACX_negctrl_site497]”, 9.38 ± 0.49.
With “TATGTATGTATTAATGCGCACACAAAAAATAACAAT [CACACA_site8551]” the figure was 8.95 ± 0.38; with “AAAAATTAAATATAAAGTACAAAATTAAAATCTTAA [XGTACX_site931]”, 7.38 ± 0.41.
Take “TTTTGTATTTATGGATGTACATAATATGTTTTAAAC [XGTACX_site3278]”: the “gcPBM binding intensity (ln)” value was found to be 8 ± 0.45.
As for “TATGACCTTAGAAATTGTACAAGAAAAAATGTTACA [XGTACX_site7084]”, the “gcPBM binding intensity (ln)” value is 7.78 ± 0.58.
In the case of “ATATAAAATACATGGGTGCAATATATTAAACAAATA [GTGCAC_site9421]” it was 11.2 ± 0.48; in that of “GTTATAAATAAATACACACATACAAAAATATGACGT [CACACA_site1154]”, 7.67 ± 0.45; in that of “TCACATACATGAAAATGTACTTTTATAATTCCATAA [XGTACX_site1836]”, 7.75 ± 0.45.
With “ATCGTGAATAATATCTGTACATATGAACACATATAT [XGTACX_site952]” the figure was 7.92 ± 0.54.
With “TAAAGGTGAACAATACGTACATAAGAACTTATGAGG [XGTACX_site4216]” the figure was 7.97 ± 0.67; with “TCTGTAAATACGTGCACACACAAATCACAAATGTGA [CACACA_site330]”, 10.78 ± 0.099; with “TAAATAATTTCACGAATGACAAAGATATAATAAGTT [CACACA_negctrl_site1430]”, 7.76 ± 0.76.
In the case of “ATAAATACACACAAGTGTACATACTTCTATAAATAT [XGTACX_site1845]”, the “gcPBM binding intensity (ln)” value amounted to 7.83 ± 0.28.
As for “ATATTATAATAAATGTGTACATATTGTAGAAATATT [XGTACX_site8101]”, the “gcPBM binding intensity (ln)” value was found to be 7.88 ± 0.5.
With “AATTATTTACCCTATACACACAAAACACGCTAAAAA [CACACA_site1211]” the figure was 8.2 ± 0.54; with “TATTATATATTAAATGCATGTAAAAATAATATTAAA [TGCATGCA_site643]”, 8.11 ± 1.3; with “ATTTTGTGCGCACACACATGCAAAAAGAAATATGAT [TGCATGCA_site261]”, 10.74 ± 0.021.
For the sequence “AAAGAGAGTATCTAATGTACGTATGTATGTATATAT [XGTACX_site1780]”, the “gcPBM binding intensity (ln)” value is 7.92 ± 0.44.
For the sequence “TATATATATATATGTGCATGTTCCCCATGCTTCCAT [TGCATGCA_site366]”, the “gcPBM binding intensity (ln)” value was 9.43 ± 0.3.
In the case of “AAAATTATAATAATATGTACTTAAAAAATTTATATA [XGTACX_site632]” it was 7.54 ± 0.2.
With “TATATGTATTTATATACACACATATTCTTTTGACAC [CACACA_site1206]” the figure was 7.58 ± 0.38; with “AATATATATATATATAGTACATATTTTTATTCATTA [XGTACX_site2156]”, 7.68 ± 0.31; with “TTCTTCAAGGAAAACACATGCGCATTTTCACCAATT [TGCATGCA_site11]”, 8.23 ± 1.
For the sequence “ATATATATATATATATGTACATATGTATATTTTTTT [XGTACX_site1299]”, the “gcPBM binding intensity (ln)” value turned out to be 9.15 ± 0.52.
With “AATACACAAATATATTGTACATATATATATATATAT [XGTACX_site2440]” the figure was 9.24 ± 0.57.
In the case of “CATATATAAATATAAATATATATATATATATATATG [XGTACX_negctrl_site493]” it was 8.03 ± 0.39; in that of “ACTTATTATTAATATTGTACTCTTGAAAATTGTGGA [XGTACX_site6315]”, 7.91 ± 0.4; in that of “ATATATATTTTTTAAACACACACATAAATATTTGTG [CACACA_site8936]”, 7.97 ± 0.38.
With “CAAAAGTATAATAATACACACACTTTAAAAGTTAAA [CACACA_site3343]” the figure was 7.7 ± 0.38; with TAGATTCTTGAATAAGTGCAAAATATAATATTTATT, 9.975 ± 0.007; with “AAAAATAAAATAAAATAAAATAAACATACCATATGT [CACACA_negctrl_site594]”, 7.46 ± 0.63.
“TTACAAATGGTTTACACACACATAATTGTATCAATT [CACACA_site4167]”: the “gcPBM binding intensity (ln)” value was determined as 7.86 ± 0.23.
In the case of “TAATATATGAGAAATTGTACAGAAAGGAATATGCTT [XGTACX_site5300]” it was 7.96 ± 0.8; in that of “AAGAAATATTTATACACACACACAAACATATATATA [CACACA_site1912]”, 8.28 ± 0.71; in that of “ATATTATTGTAGAAATGTACATATATATATATATAT [XGTACX_site1882]”, 9.31 ± 0.38.
For the sequence “TATATATGTTCAATATGTACATATATATAAGTGTAT [XGTACX_site5157]”, the “gcPBM binding intensity (ln)” value came to 7.85 ± 0.51.
In the case of “CTGTATTCATAATTCACACAAATGGTTTATATGAAT [CACACA_site4315]” it was 7.83 ± 0.47.
